Measured values: the supplement of paper PMC4967469
IC50 is the fitted dose that halves viability relative to control wells, and lower means more sensitive; a limit (>, <) means that the fit lies beyond the doses tested. For AUC the same curve is integrated over the 256-fold range of doses and scaled to a fraction; the more sensitive the line, the further below 1. For part of these data: Where the top dose is marked as inferred, it was derived from the fitted curves, not read from the paper.

Legend:
Test in all cases: Viability of human cancer cell lines after 72 h of drug (GDSC screen)
JW-7-52-1 = compound: CCC(=O)N1CCN(c2ccc(-n3c(=O)ccc4cnc5ccc(-c6cnc7ccccc7c6)cc5c43)cc2C(F)(F)F)CC1 [JW-7-52-1]; conditions: top dose 1.2 µM; top dose inferred
Protocol: (§1)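 Human cancer cell lines in 384-well plates, medium with 10% serum, drug for 72 h over a 256-fold dose range (nine 2-fold or five 4-fold steps up to the top dose). Adherent lines were fixed and stained with the nucleic acid dye Syto60, suspension lines read with resazurin; signal relative to control wells, capped at 0 and 100%. One two-parameter sigmoid per drug and line, fitted in a mixed model over all curves with the slope shared within a line.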

Z-LLNle-CHO = compound: CCCC[C@@H](C=O)NC(=O)[C@H](CC(C)C)NC(=O)[C@H](CC(C)C)NC(=O)OCc1ccccc1 [Z-LLNle-CHO]; conditions: top dose 2.56 µM; top dose inferred
Protocol: as §1

ZG-10 = compound: CN(C)C/C=C/C(=O)Nc1ccc(C(=O)Nc2cccc(Nc3nccc(-c4cccnc4)n3)c2)cc1 [ZG-10]; conditions: top dose 10 µM; top dose inferred
Protocol: as §1

Tubastatin A = compound: CN1CCc2c(c3ccccc3n2Cc2ccc(C(=O)NO)cc2)C1 [Tubastatin A]; conditions: top dose 20 µM
Protocol: as §1

XL-880 = compound: COc1cc2c(Oc3ccc(NC(=O)C4(C(=O)Nc5ccc(F)cc5)CC4)cc3F)ccnc2cc1OCCCN1CCOCC1 [XL-880]; conditions: top dose 5.12 µM; top dose inferred
Protocol: as §1

Temozolomide = compound: Cn1nnc2c(C(N)=O)ncn2c1=O [Temozolomide]; conditions: top dose 30 µM
Protocol: as §1

IPA-3 = compound: Oc1ccc2ccccc2c1SSc1c(O)ccc2ccccc12 [IPA-3]; conditions: top dose 32 µM; top dose inferred
Protocol: as §1

CI-1040 = compound: O=C(NOCC1CC1)c1ccc(F)c(F)c1Nc1ccc(I)cc1Cl [CI-1040]; conditions: top dose 10 µM; top dose inferred
Protocol: as §1

Cell Line	AUC (JW-7-52-1)	IC50 (JW-7-52-1) [nM]	AUC (Z-LLNle-CHO)	IC50 (Z-LLNle-CHO) [nM]	AUC (ZG-10)	IC50 (ZG-10) [nM]	AUC (Tubastatin A)	IC50 (Tubastatin A) [nM]	AUC (XL-880)	IC50 (XL-880) [nM]	AUC (Temozolomide)	IC50 (Temozolomide) [nM]	AUC (IPA-3)	IC50 (IPA-3) [nM]	AUC (CI-1040)	IC50 (CI-1040) [nM]
IA-LM (large cell lung carcinoma, adherent)	0.406	40	0.796	1360	0.775	4450	0.979	> 20000	0.837	4040	0.976	> 30000	0.772	13900	–	–
HUTU-80 (digestive system, adherent)	0.2	12	0.774	837	0.793	3730	0.905	18800	0.323	113	0.991	> 30000	0.681	5800	0.847	5560
RKO (large intestine, adherent)	0.248	15.2	0.72	638	0.768	3490	0.895	> 20000	0.671	923	0.987	> 30000	0.658	–	0.832	5770
SU-DHL-8 (B-cell lymphoma, suspension)	0.434	50.2	0.679	488	0.826	5530	0.693	4150	0.504	328	0.978	> 30000	0.539	2530	–	–
H9 (lymphoid neoplasm, suspension)	0.526	86.9	0.777	846	0.655	1540	0.983	> 20000	0.612	611	0.986	> 30000	0.783	11100	0.806	4050
NMC-G1 (glioma, adherent)	0.328	22.1	0.786	1390	0.799	6130	0.919	> 20000	0.568	514	0.97	> 30000	0.956	> 32000	0.869	> 10000
BL-41 (Burkitt lymphoma, suspension)	0.157	9.86	0.662	400	0.5	623	0.787	6590	0.378	161	0.993	> 30000	0.584	3210	0.914	8400
SW982 (soft tissue, adherent)	0.303	20.5	0.743	815	0.611	1270	0.983	> 20000	0.594	583	0.983	> 30000	0.733	9470	0.734	2980
EoL-1-cell (haematopoietic neoplasm, suspension)	0.38	36.5	0.783	947	0.286	169	0.556	1740	0.019	< 20	0.845	17900	0.947	> 32000	0.509	659
GB-1 (glioma, adherent)	0.303	18.8	0.721	768	0.922	> 10000	0.934	> 20000	0.434	205	0.952	> 30000	0.617	4460	0.915	> 10000
EW-16 (Ewing sarcoma, adherent)	0.258	14.6	0.807	1380	0.663	1820	0.943	> 20000	0.654	875	0.983	> 30000	0.744	10400	0.865	9510
RXF393 (kidney, adherent)	0.409	38.5	0.767	1340	0.642	1810	0.934	> 20000	0.534	411	0.975	> 30000	0.845	> 32000	0.762	4940
TE-10 (oesophagus, adherent)	0.389	37.5	0.785	1070	0.692	2130	0.985	> 20000	0.847	3660	0.986	> 30000	0.851	23800	–	–
K-562 (chronic myeloid leukaemia, suspension)	0.56	109	0.858	2000	0.687	2050	–	–	–	–	–	–	0.96	> 32000	–	–
LB996-RCC (kidney, adherent)	0.248	12.4	0.818	1760	0.699	2500	0.982	> 20000	0.776	2380	0.961	> 30000	0.983	> 32000	–	–
RCC10RGB (kidney, adherent)	0.863	> 1200	0.94	> 2560	–	–	0.967	> 20000	0.797	> 5120	0.962	> 30000	0.78	31000	0.909	> 10000
